From paper PMC10213050
Results are given in words; binding and its absence hold for the method and conditions named. Where a sequence is shown, tags or fusion partners need not be part of it.

Amino acid sequences for entries named in this document (tags omitted).
UniProt P12954: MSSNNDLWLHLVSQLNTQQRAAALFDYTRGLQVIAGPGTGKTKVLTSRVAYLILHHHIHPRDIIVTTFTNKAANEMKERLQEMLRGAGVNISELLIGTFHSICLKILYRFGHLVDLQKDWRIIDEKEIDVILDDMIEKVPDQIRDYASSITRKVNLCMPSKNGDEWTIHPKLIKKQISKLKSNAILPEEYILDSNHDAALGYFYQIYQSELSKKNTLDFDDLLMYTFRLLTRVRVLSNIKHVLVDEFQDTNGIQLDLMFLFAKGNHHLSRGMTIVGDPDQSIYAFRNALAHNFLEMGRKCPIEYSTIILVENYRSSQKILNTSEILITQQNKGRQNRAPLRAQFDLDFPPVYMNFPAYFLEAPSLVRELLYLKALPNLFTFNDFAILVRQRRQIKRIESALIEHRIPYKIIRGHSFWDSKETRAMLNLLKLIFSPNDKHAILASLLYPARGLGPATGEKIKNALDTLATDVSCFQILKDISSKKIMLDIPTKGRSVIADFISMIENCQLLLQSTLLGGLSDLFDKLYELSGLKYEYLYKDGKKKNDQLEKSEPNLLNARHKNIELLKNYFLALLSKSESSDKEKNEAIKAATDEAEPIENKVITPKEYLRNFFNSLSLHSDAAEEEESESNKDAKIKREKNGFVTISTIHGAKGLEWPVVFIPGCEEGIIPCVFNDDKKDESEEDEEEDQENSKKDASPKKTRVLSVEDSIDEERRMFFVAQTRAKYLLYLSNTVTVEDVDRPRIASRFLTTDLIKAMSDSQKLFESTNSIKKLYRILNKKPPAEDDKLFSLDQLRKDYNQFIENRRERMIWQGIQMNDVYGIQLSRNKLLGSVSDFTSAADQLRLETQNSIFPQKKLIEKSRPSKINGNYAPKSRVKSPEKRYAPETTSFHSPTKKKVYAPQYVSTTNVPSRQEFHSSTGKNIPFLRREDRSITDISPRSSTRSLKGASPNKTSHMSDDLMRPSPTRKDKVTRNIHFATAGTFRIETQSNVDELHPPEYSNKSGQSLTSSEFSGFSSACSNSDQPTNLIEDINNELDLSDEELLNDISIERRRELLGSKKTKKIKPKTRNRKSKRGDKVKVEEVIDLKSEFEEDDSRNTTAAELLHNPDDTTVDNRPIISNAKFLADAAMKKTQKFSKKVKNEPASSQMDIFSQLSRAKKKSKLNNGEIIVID
UniProt P25454: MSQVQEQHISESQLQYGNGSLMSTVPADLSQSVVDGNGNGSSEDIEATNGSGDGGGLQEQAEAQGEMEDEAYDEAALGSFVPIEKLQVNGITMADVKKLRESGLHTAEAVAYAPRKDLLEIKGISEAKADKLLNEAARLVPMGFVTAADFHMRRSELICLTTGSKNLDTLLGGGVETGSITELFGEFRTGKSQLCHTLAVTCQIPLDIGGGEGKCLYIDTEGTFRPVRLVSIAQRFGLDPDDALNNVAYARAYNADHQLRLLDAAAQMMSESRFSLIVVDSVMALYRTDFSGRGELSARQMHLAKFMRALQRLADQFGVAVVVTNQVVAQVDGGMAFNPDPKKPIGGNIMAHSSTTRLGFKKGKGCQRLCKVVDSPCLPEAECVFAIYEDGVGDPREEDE

Assays:
[1] = target: GST-Srs2 (yeast (Saccharomyces cerevisiae)) (UniProt P12954); assay: pull-down; GST-Srs2 on beads with 6xHis-tagged WT, truncated or mutated Bre1; detected by Western blot with an anti-His antibody; whether ssDNA was included is not told; both purified
[2] = target: 6xHis-Rad51 (yeast (Saccharomyces cerevisiae)) (UniProt P25454); assay: native gel or EMSA; Rad51 or hRad51 on circular M13 mp18 ssDNA (100 nM), then Bre1, bre1-EK2A or RNF20N added, 37 °C 15 min; glutaraldehyde cross-linking; 0.8% agarose gel; both purified

Row | binding [1] | binding [2] | Binder
1 | no binding | – | 6xHis-Bre1-DK2A (enzyme, UniProt Q07457 1-700) MTAEPATKKIKLELSDPSEPLTQSDVIAFQKEALFRCINRRRVDFEALRKQYELSRRECIDVSRKLANIMALIVTLARFIETFCTDANEKQLCREIAQGDETLIVQRSDSFMKLLTKYGKPNTTDSNTNSNASDHIQELTTELKNLRKSKEELFYENSQLTEEISALKEYYTNIIRKYDRDESFTIKRVFKEDKTDAVKELREDEKESNENNIKSGNKDSSAINGDNTSKKSEKGDELVQAEDERKEDAENEKLELDLKFSDLRAEINSLSSTIKDLENIRRENEEELIKTRSEVSNLKKQQIAAADQDPDFKSYDHESLLAKIQHLTEQNAELSEINSSFLSKFQVLAKEKEIYTKKVREEFQKSLDSLVEMNSSLEKDVVRIRTARDDLLSKIAILEAEKSKTEVLSDLQHAIDILKEQWTKIDQRSNDTKSSSTQDALIKEIQDLEKGFRELSDLTHKKYSEIINHESVISKLTVEKTKAAQAYFAAMRSKDSILIEIKTLSKSLSKSNELILQLKDSDRLLQQKIGNLHKQLDLSQNNERRLIDSSKTETLKIIDLNNTSTKLKRSLEKLQEESNKSIADMTHLETKLNDTEIELKHFKQKASHLESKCEKLHDTLFRGNNKNKGSSDEALVEELANFRTLVYCSLCSKNWKNMAIKTCGHVFCENCCKERLAARMRKCPTCNKAFSSNDLLTVHL
2 | – | no binding | 6xHis-bre1-EK2A (enzyme, UniProt Q07457 1-700) MTAEPATKKIKLELSDPSEPLTQSDVIAFQKEALFRCINRRRVDFEALRKQYELSRRECIDVSRKLANIMALIVTLARFIETFCTDANEKQLCREIAQGDETLIVQRSDSFMKLLTKYGKPNTTDSNTNSNASDHIQELTTELKNLRKSKEELFYENSQLTEEISALKEYYTNIIRKYDRDESFTIKRVFKEDKTDAVKELREDEKESNENNIKSGNKDSSAINGDNTSKKSEKGDELVQAEDERKEDAENEKLELDLKFSDLRAEINSLSSTIKDLENIRRENEEELIKTRSEVSNLKKQQIAAADQDPDFKSYDHESLLAKIQHLTEQNAELSEINSSFLSKFQVLAKEKEIYTKKVREEFQKSLDSLVEMNSSLEKDVVRIRTARDDLLSKIAILEAEKSKTEVLSDLQHAIDILKEQWTKIDQRSNDTKSSSTQDALIKEIQDLEKGFRELSDLTHKKYSEIINHESVISKLTVEKTKADQKYFAAMRSKDSILIAIATLSKSLSKSNELILQLKDSDRLLQQKIGNLHKQLDLSQNNERRLIDSSKTETLKIIDLNNTSTKLKRSLEKLQEESNKSIADMTHLETKLNDTEIELKHFKQKASHLESKCEKLHDTLFRGNNKNKGSSDEALVEELANFRTLVYCSLCSKNWKNMAIKTCGHVFCENCCKERLAARMRKCPTCNKAFSSNDLLTVHL
3 | no binding | – | 6xHis-tagged Bre1 truncation 1-485 aa (domain or fragment, UniProt Q07457 1-485) MTAEPATKKIKLELSDPSEPLTQSDVIAFQKEALFRCINRRRVDFEALRKQYELSRRECIDVSRKLANIMALIVTLARFIETFCTDANEKQLCREIAQGDETLIVQRSDSFMKLLTKYGKPNTTDSNTNSNASDHIQELTTELKNLRKSKEELFYENSQLTEEISALKEYYTNIIRKYDRDESFTIKRVFKEDKTDAVKELREDEKESNENNIKSGNKDSSAINGDNTSKKSEKGDELVQAEDERKEDAENEKLELDLKFSDLRAEINSLSSTIKDLENIRRENEEELIKTRSEVSNLKKQQIAAADQDPDFKSYDHESLLAKIQHLTEQNAELSEINSSFLSKFQVLAKEKEIYTKKVREEFQKSLDSLVEMNSSLEKDVVRIRTARDDLLSKIAILEAEKSKTEVLSDLQHAIDILKEQWTKIDQRSNDTKSSSTQDALIKEIQDLEKGFRELSDLTHKKYSEIINHESVISKLTVEKTKADQ
